Measurements as given in PubChem BioAssay AID686979 (National Center for Advancing Translational Sciences (NCATS), 2013).
Hit rate of the full screen: of about 420,000 compounds, about 50,000 (12%) were called active. The inconclusive results got no clear call from the source; some entries with a clear call stand among them for comparison. Calls come from the whole dose curve; as a rule, active = well fitted inhibition curve with a large enough effect; inconclusive = small, poorly fitted or top-dose-only effect; inactive = flat fitted curve, though single readings scatter. Potencies of inconclusive entries are left out as doubtful fits.

Experiment: qHTS for Inhibitors of human tyrosyl-DNA phosphodiesterase 1 (TDP1): qHTS in cells in presence of CPT; note: nearly all actives have a fitted effect of over 55% in size
Settings: chicken DT40 Tdp1-/-;hTDP1 cells + 20 nM CPT, ATP luminescence, 48 h; activity change, negative = growth inhibition: at 46.2 µM (top of the series)
In short: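 Chicken DT40 Tdp1-/- cells stably complemented with human TDP1 were seeded at 400 cells/well in medium containing 20 nM camptothecin, exposed to pin-transferred compounds, and grown at 37 °C for at least 48 hr. Viability was read as ATP luminescence.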
% is set by controls: 0 for no effect and ±100 for the full control effect; potency is the fitted concentration of half-maximal effect; tags give direction and shape of the fitted curve.

| SMILES | Potency | activity change, negative = growth inhibition |
| --- | --- | --- |
| FC(F)(F)c1cc(-c2ccco2)nc(NCCc2ccccc2)n1 | inconclusive [inhibitor, single point] | – |
| CC1=C(OC(=O)C(C)(C)C)C(C)(C)C(c2ccccc2)OC1=O (centres undefined) | inconclusive [inhibitor, single point] | – |
| CCCN(CCC)C(=O)Cn1c(=O)n(-c2ccc(C)cc2)c(=O)c2ccc(C(=O)NCc3ccccc3Cl)cc21 | inconclusive [inhibitor, single point] | – |
| Cc1ccc(CNC(=O)C(=O)c2cn(CC(=O)N3CCOCC3)c3ccccc23)cc1 | inactive | – |
| COC(=O)c1cc(Cl)c(NC(=O)/C=C/c2ccc(OC)c(OC)c2)cc1OC | inconclusive [inhibitor, single point] | – |
| O=C(NN1C(=O)c2ccccc2NC1c1ccc([N+](=O)[O-])o1)c1ccc([N+](=O)[O-])cc1 (centres undefined) | active: 18.4 µM | – |
| O=C(NCc1ccco1)/C(=C\c1ccccc1)NC(=O)c1ccccc1 | inactive | – |
| CN(Cc1ccc2c(c1)OCO2)C(=O)c1cc(-c2ccccc2)c(N2CCOCC2)s1 | inconclusive [inhibitor, single point] | – |
| CCCCn1c(=O)c(CC(C)=O)nc2ccccc21 | inactive | – |
| COc1ccc(OCC(O)CN2CCCC2)cc1 (centres undefined) | inactive | – |
| Cc1c(CCOC(=O)c2cc([N+](=O)[O-])cc([N+](=O)[O-])c2)sc[n+]1CCCCS(=O)(=O)[O-] | inactive | – |
| CC(C(=O)N1CCCCC1)n1ncn2cccc2c1=O (centres undefined) | inactive | – |
| Cc1ccc(-c2cn3c(n2)sc2cc(C(=O)NCc4cccs4)ccc23)cc1 | active: 14.6 µM | – |
| O=C(N/N=C/c1cc(Br)cc(Br)c1O)c1cccc(S(=O)(=O)N2CCOCC2)c1 | active: 3.66 µM | – |
| Cc1ccc(-n2nc(CO)c(C(=O)NCC(c3ccccc3)c3ccccc3)n2)cc1 | inconclusive [inhibitor, partial curve] | – |
| Cc1[nH]n(-c2ccccc2)c(=O)c1/C=N/n1c(C)nc2ccccc2c1=O | inconclusive [inhibitor, single point] | – |
| COc1ccc(-c2oc3ncnc(NCCCN4CCOCC4)c3c2-c2ccc(OC)cc2)cc1 | inconclusive [inhibitor, single point] | – |
| O=C(CCc1nnc2n(Cc3ccccc3Cl)c(=O)c3ccccc3n12)Nc1ccc(F)c(F)c1 | active: 23.1 µM | – |
| COC(=O)N1CCC2(CC1)CN(c1ccncc1)C2 | inactive | – |
| COc1cccc(C2=CC(=O)C[C@H](c3ccc(F)cc3)C2)c1OC | inconclusive [inhibitor, partial curve] | – |
| Cc1ccccc1NC(=O)CSc1nc(N)c(C#N)c(-c2cccs2)c1C#N | inactive | – |
| CCOCCCNC(=O)CCC(=O)NNc1nc2ccccc2c2nc(-c3ccccc3)nn12 | inconclusive [inhibitor, single point] | – |
| Cc1oc(-c2ccccc2)nc1CSc1nnc(C)n2c1cc1sccc12 | inconclusive [inhibitor, single point] | – |
| O=C(Nc1cccc(Cl)c1)NC1CCS(=O)(=O)C1 (centres undefined) | inactive | – |
| O=C(COC(=O)c1ccccc1)NC1CCCC1 | inactive | – |

| SMILES | Potency | activity change, negative = growth inhibition |
| --- | --- | --- |
| CCC1CN(C(=O)N2CCC(C(=O)NCCc3ccc(C)cc3)CC2)c2ccccc2O1 (centres undefined) | inconclusive [inhibitor, single point] | – |
| CCC(=O)N(C)C[C@H]1Oc2cc(-c3ccccc3F)ccc2S(=O)(=O)N([C@H](C)CO)C[C@H]1C | inconclusive [inhibitor, single point] | – |
| COc1ccc(N(CC(=O)N2CCN(c3ccccc3)CC2)S(=O)(=O)c2c(C)noc2C)cc1 | inconclusive [inhibitor, partial curve, poor fit] | – |
| COc1ccc(S(=O)(=O)N2CCN(C(=O)NCc3ccccc3)CC2)cc1 | inconclusive [inhibitor, single point] | – |
| Cc1ccc(S(=O)(=O)N2[C@H](CC(=O)c3ccc(Cl)c(Cl)c3)OC[C@@H]2C(C)C)cc1 | inactive | – |
| O=C(/C=C/c1ccccc1Cl)Nc1ccncc1 | inconclusive [inhibitor, single point] | – |
| COc1cccc(Nc2cc(-c3ccccc3)nc(C)n2)c1 | inconclusive [inhibitor, single point] | – |
| CCC(Oc1ccccc1)C(=O)NC1C(=O)N2C1SC(C)(C)C2C(=O)O (centres undefined) | inconclusive [inhibitor, partial curve] | – |
| CCn1cc(CNC(=O)c2cc(-c3cc(OC)ccc3OC)nc3ccccc23)c(C)n1 | inconclusive [inhibitor, single point] | – |
| N#Cc1ccc(C(=O)N(Cc2ccco2)Cc2cccs2)cc1 | inconclusive [inhibitor, single point] | – |
| Cc1cc(C(=O)N/N=C/c2ccc[nH]2)no1 | inconclusive [inhibitor, single point] | – |
| COc1ccc(C2Oc3cc(OC)cc(OC)c3CC2O)cc1 (centres undefined) | inconclusive [inhibitor, single point] | – |
| CC1(C)S[C@@H]2[C@H](NC(=O)[C@H](N)c3ccccc3)C(=O)N2[C@H]1C(=O)OC1OC(=O)c2ccccc21 (some centres undefined) | active: 11.6 µM | – |
| O=C(Nc1nc2ccccc2s1)c1ccc2sc([C@H]3C[C@H](O)[C@@H](CO)O3)nc2c1 | active: 16.4 µM | – |
| O=c1[nH]c2ccccc2n1C1CCN(CCOc2ccccc2)CC1 | active: 3.66 µM | – |
| N#Cc1nnn2c1nc(N)c1c(Cl)cccc12 | inactive | – |
| Nc1ccn(C2CCCCO2)c(=O)n1 (centres undefined) | inactive | – |
| CCCC(C)C(=O)Nc1ccc(S(=O)(=O)Nc2nccs2)cc1 (centres undefined) | inactive | – |
| COC(=O)Cn1c2[n+](c3ccccc31)CC(O)CS2 (centres undefined) | inactive | – |
| COc1ccc(/C=C/C(=O)Nc2cc(F)ccc2C)cc1S(=O)(=O)N1CCOCC1 | inconclusive [inhibitor, single point] | – |
| Cc1cccc(C)c1NC(=O)CSCC(=O)c1ccc(O)c(O)c1 | inconclusive [inhibitor, single point] | – |
| CCN(CC)S(=O)(=O)c1ccc(N2CCOCC2)c(NC(=O)c2cc3ccccc3oc2=O)c1 | inconclusive [inhibitor, single point] | – |
| COc1ccccc1CCNC(=O)c1ccoc1C | inactive | – |
| COc1ccc(C)c2sc(N(Cc3cccnc3)C(=O)COc3ccccc3)nc12 | inconclusive [inhibitor, single point] | – |
| S=c1nc(-c2ccccc2)n(CCCn2ccnc2)c2c1CCCC2 | inactive | – |

| SMILES | Potency | activity change, negative = growth inhibition |
| --- | --- | --- |
| CCc1[nH]nc2c1C1(CCN(C(=O)OCc3ccccc3)CC1)C(C#N)=C(N)O2 | inconclusive [inhibitor, single point] | – |
| CC1CCN(C(c2ccc(N(C)C)cc2)c2nnnn2Cc2ccccc2)CC1 (centres undefined) | inconclusive [inhibitor, single point] | – |
| CCOc1cc([N+](=O)[O-])cc(/C=N/NC(=O)c2c(-c3ccccc3)noc2C)c1O | inconclusive [inhibitor, single point] | – |
| CCc1ccc(S(=O)(=O)Nc2cc(-c3cn4ccccc4n3)ccc2C)cc1 | – | inconclusive: -32.1% [inhibitor] |
| CC(c1ccccc1)n1c(CO)nc2ccccc21 (centres undefined) | inconclusive [inhibitor, single point] | – |
| COc1ccc(C2=NN(C(=O)CSc3nccn3C)C(c3ccco3)C2)cc1 (centres undefined) | active: 18.4 µM | – |
| CCCCN1C(N)=NC[C@@H]1CC1CCCCC1 | active: 23.1 µM | – |
| Cc1ccc(C(=O)O)cc1NC(=S)NC(=O)c1ccc([N+](=O)[O-])c(C)c1 | inactive | – |
| O=C(c1nc2ccccn2c1CN1CCCC(O)C1)N1CCN(C2CCCCC2)CC1 (centres undefined) | inactive | – |
| CC[C@@H](C)[C@H](NC(=O)CNC(=O)Cc1c(C)c2c(cc(C)c3c(C)coc32)oc1=O)C(=O)O | inactive | – |
| Cc1ccc(N=C2SC(C(=O)Nc3ccc(OC(F)(F)F)cc3)C(N)=C2C(=O)Nc2c(C)cc(C)cc2C)cc1 (centres undefined) | inconclusive [inhibitor, single point] | – |
| CC1CCCCN1CC(=O)Nc1ccccc1Sc1ccccc1 (centres undefined) | inconclusive [inhibitor, single point] | – |
| COc1ccc(OC)c(CNC(=O)CCn2nc(C)c3c(C)n(-c4ccccc4)nc3c2=O)c1 | inactive | – |
| Cc1ccc(-n2ncc3c(N4CCN(C)CC4)ncnc32)cc1 | – | inconclusive: -32.4% [inhibitor] |
| COc1cc2ccc(-c3ccc4ccccc4n3)cc2cc1OC | inconclusive [inhibitor, single point] | – |
| Cc1ccc2c(c1)N(C(=O)N1CCC(C(=O)NC3CCCCCC3)CC1)CCO2 | inactive | – |
| CCOC(=O)N1CCC(n2c(SCC(=O)NCc3ccccc3)nc3ccccc3c2=O)CC1 | active: 23.1 µM | – |
| CC1=NN(c2ccccc2)C(=O)/C1=C/c1ccc[nH]1 | inactive | – |
| O=C(CSc1nnc(CN2CCOCC2)n1-c1ccccc1)Nc1ccc(Cl)cc1 | inactive | – |
| CC(=NNC(=O)c1ccncc1)c1ccccc1O | active: 0.184 µM | – |
| NNC(=O)c1cc(Br)cs1 | inconclusive [inhibitor, single point] | – |
| CC(=O)Nc1sc(N/N=C/c2ccc(N(C)C)cc2)nc1-c1ccc(C)cc1 | inactive | – |
| COc1cc(NC(=O)CN(C)Cc2cccc(F)c2)c(C)cc1[N+](=O)[O-] | inconclusive [inhibitor, single point] | – |
| O=c1cc(CO)oc(C(Nc2ccccn2)c2cccc(F)c2)c1O (centres undefined) | inactive | – |
